Results taken from the supplement of paper PMC4967469.

Tests used:
Assay in all cases: Viability of human cancer cell lines after 72 h of drug (GDSC screen)
AR-42 = compound: CC(C)[C@H](C(=O)Nc1ccc(C(=O)NO)cc1)c1ccccc1 [AR-42]; details: top dose 5.12 µM; top dose inferred
Procedure: (§1)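 Human cancer cell lines in 384-well plates, medium with 10% serum, drug for 72 h over a 256-fold dose range (nine 2-fold or five 4-fold steps up to the top dose). Adherent lines were fixed and stained with the nucleic acid dye Syto60, suspension lines read with resazurin; signal relative to control wells, capped at 0 and 100%. One two-parameter sigmoid per drug and line, fitted in a mixed model over all curves with the slope shared within a line.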

CEP-701 = compound: C[C@]12O[C@H](C[C@]1(O)CO)n1c3ccccc3c3c4c(c5c6ccccc6n2c5c31)CNC4=O [CEP-701]; details: top dose 2 µM; top dose inferred
Procedure: as §1

GDC0941 = compound: CS(=O)(=O)N1CCN(Cc2cc3nc(-c4cccc5[nH]ncc45)nc(N4CCOCC4)c3s2)CC1 [GDC0941]; details: top dose 4 µM; screen: GDSC drug entry 1527; top dose inferred
Procedure: as §1

Sunitinib = compound: CCN(CC)CCNC(=O)c1c(C)[nH]c(/C=C2\C(=O)Nc3ccc(F)cc32)c1C [Sunitinib]; details: top dose 8 µM
Procedure: as §1

Pazopanib = compound: Cc1ccc(Nc2nccc(N(C)c3ccc4c(C)n(C)nc4c3)n2)cc1S(N)(=O)=O [Pazopanib]; details: top dose 8 µM
Procedure: as §1

MG-132 = compound: CC(C)C[C@@H](C=O)NC(=O)[C@H](CC(C)C)NC(=O)[C@H](CC(C)C)NC(=O)OCc1ccccc1 [MG-132]; details: top dose 1 µM
Procedure: as §1

SB 216763 = compound: Cn1cc(C2=C(c3ccc(Cl)cc3Cl)C(=O)NC2=O)c2ccccc21 [SB 216763]; details: top dose 10 µM; top dose inferred
Procedure: as §1

Cell Line | AUC (AR-42) | IC50 (AR-42) | AUC (CEP-701) | IC50 (CEP-701) | AUC (GDC0941) | IC50 (GDC0941) | AUC (Sunitinib) | IC50 (Sunitinib) | AUC (Pazopanib) | IC50 (Pazopanib) | AUC (MG-132) | IC50 (MG-132) | AUC (SB 216763) | IC50 (SB 216763)
TE-5 (oesophagus, adherent) | 0.951 | > 5120 nM | 0.841 | 1710 nM | 0.728 | 1250 nM | 0.966 | > 8000 nM | 0.977 | > 8000 nM | 0.655 | 181 nM | 0.984 | > 10000 nM
BE-13 (lymphoblastic leukaemia, suspension) | 0.233 | 57.6 nM | 0.563 | 183 nM | 0.94 | > 4000 nM | 0.798 | 3530 nM | 0.957 | > 8000 nM | 0.987 | > 1000 nM | 0.932 | > 10000 nM
TE-15 (oesophagus, suspension) | 0.549 | 443 nM | 0.826 | 1430 nM | 0.845 | 3460 nM | 0.522 | 578 nM | 0.794 | 4230 nM | 0.854 | 959 nM | 0.985 | > 10000 nM
EW-24 (Ewing sarcoma, semi-adherent) | 0.8 | 2130 nM | 0.918 | > 2000 nM | 0.862 | 2770 nM | 0.99 | > 8000 nM | 0.987 | > 8000 nM | 0.836 | 553 nM | 0.976 | > 10000 nM
697 (lymphoblastic leukaemia, suspension) | 0.174 | 44.4 nM | 0.217 | 23.3 nM | 0.676 | 691 nM | 0.545 | 646 nM | 0.954 | > 8000 nM | 0.685 | 182 nM | 0.963 | > 10000 nM
NB5 (neuroblastoma, adherent) | 0.592 | 575 nM | 0.695 | 444 nM | 0.674 | 767 nM | 0.92 | > 8000 nM | 0.984 | > 8000 nM | 0.832 | 651 nM | 0.859 | 8470 nM
PL-21 (acute myeloid leukaemia, suspension) | 0.448 | 225 nM | 0.42 | 72.7 nM | 0.652 | 711 nM | 0.758 | 3200 nM | 0.973 | > 8000 nM | 0.891 | > 1000 nM | 0.983 | > 10000 nM
NTERA-2 cl.D1 (testis, adherent) | 0.618 | 671 nM | 0.644 | 312 nM |  |  | 0.824 | 4700 nM | 0.843 | 5610 nM | 0.501 | 62.8 nM | 0.957 | > 10000 nM
HC-1 (hairy cell leukaemia, suspension) | 0.386 | 158 nM | 0.89 | > 2000 nM | 0.735 | 1140 nM | 0.83 | 4760 nM | 0.956 | > 8000 nM | 0.743 | 299 nM | 0.987 | > 10000 nM
MEG-01 (chronic myeloid leukaemia, suspension) | 0.529 | 382 nM | 0.511 | 134 nM | 0.951 | > 4000 nM | 0.721 | 2020 nM | 0.914 | > 8000 nM | 0.778 | 381 nM | 0.966 | > 10000 nM
NCI-H1770 (non-small cell lung carcinoma, suspension) | 0.51 | 340 nM | 0.844 | 1170 nM | 0.828 | 2060 nM | 0.91 | > 8000 nM | 0.974 | > 8000 nM | 0.992 | > 1000 nM | 0.992 | > 10000 nM
NCI-H747 (large intestine, adherent) | 0.64 | 850 nM | 0.804 | 1270 nM | 0.572 | 412 nM | 0.824 | 6180 nM | 0.948 | > 8000 nM | 0.754 | 405 nM | 0.95 | > 10000 nM
KARPAS-45 (lymphoblastic leukaemia, suspension) | 0.177 | 43.1 nM | 0.413 | 75.4 nM | 0.889 | 3240 nM | 0.776 | 2670 nM | 0.919 | > 8000 nM | 0.732 | 250 nM | 0.979 | > 10000 nM
RCC10RGB (kidney, adherent) | 0.786 | > 5120 nM | 0.828 | > 2000 nM |  |  | 0.96 | > 8000 nM | 0.915 | > 8000 nM | 0.943 | > 1000 nM | 0.953 | > 10000 nM
GDM-1 (acute myeloid leukaemia, suspension) | 0.326 | 107 nM | 0.649 | 317 nM | 0.45 | 184 nM | 0.174 | 54.7 nM | 0.337 | 181 nM | 0.782 | 399 nM | 0.987 | > 10000 nM

Lines with a small IC50 respond at low doses; a limit (>, <) means that the fit lies beyond the doses tested. AUC sums up the same curve from the lowest dose to the 256-fold higher top dose: 1 means no effect, lower means more sensitive. For some assays here: The top dose, if marked as inferred, was derived from the fitted curves, not read from the paper. For some assays here: An entry number marks a drug with two screens in the source, which often give different values.
